Reference: PubChem BioAssay AID662 (National Center for Advancing Translational Sciences (NCATS), 2007)
Out of some 71,000 compounds screened, about 1,800 (2.5%) were called active. The inconclusive results got no clear call from the source; some entries with a clear call stand among them for comparison. Calls come from the whole dose curve; as a rule, active = well fitted activation curve with a large enough effect in the signal ratio, with a control signal flat (not every such curve was filed as active); inconclusive = small, poorly fitted or top-dose-only effect, or effect the other way, or a change in a side signal; inactive = flat fitted curve, though single readings scatter; the % refers to the signal ratio. Potencies of inconclusive entries are doubtful fits and often do not repeat.

experiment: Cell signaling CRE-BLA (Fsk stim); details: CHO CRE-bla reporter (cAMP response element driving beta-lactamase), forskolin EC10, beta-lactamase ratio; activity change, negative = inhibition: at 38.2 µM (top of the series) unless noted; for activity change, negative = inhibition: % of control where 0% means no effect
Summary of the method: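 Beta-lactamase reporter under a cAMP responsive element in CHO cells; compounds tested in titration series against EC10 NKH 477, 3 h at 37 °C. Read-out: CCF4 FRET ratio 460nm/530nm (excitation 405nm) giving %Activity, fitted to AC50.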
Potency is the fitted concentration of half-maximal effect; tags give direction and shape of the fitted curve.

| Compound | activity change, negative = inhibition | Potency |
| --- | --- | --- |
| CC(C)(C)c1cc(NC(=O)COC(=O)c2ccc3c(=O)n4c(nc3c2)CCC4)n(-c2ccccc2)n1 | inactive |  |
| Cc1cccc(OCC(=O)Nc2cc(C)ccc2O)c1 | inconclusive: 11% |  |
| CC(=O)C1=C(O)C=C2Oc3c(C(C)=O)c(O)c(C)c(O)c3[C@]2(C)C1=O | inconclusive: 18.6% |  |
| Cc1cccc(CNc2cc(-c3ccc(N(C)C)cc3)ncn2)c1 | inactive |  |
| CCc1c(C)nc2ncnn2c1N1CCC(C(=O)Nc2ccccc2)CC1 |  | inconclusive: 7.94 µM [rising, partial curve] |
| O=C(c1ccco1)N1CCN(S(=O)(=O)c2cccs2)CC1 | inactive |  |
| COc1cc(C(=O)N2CCC(NC(=O)C(Cc3ccccc3)NC(C)=O)CC2)cc(OC)c1OC (stereo not given) |  | inconclusive: 3.98 µM [falling, single point] |
| CCOC(=O)C1=C(O)C(=O)N(c2ccc(S(N)(=O)=O)cc2)C1c1ccccc1 (stereo not given) | inconclusive: 29.8% |  |
| Cc1ccc(S(=O)(=O)c2c(N)n(/N=C/c3ccco3)c3nc4ccccc4nc23)cc1 | inconclusive: 0.138% |  |
| CC(NC(=O)c1ccc(CS(=O)(=O)Cc2ccccc2F)o1)c1ccc2c(c1)OCCO2 (stereo not given) | inconclusive: 0.39% |  |
| CC(=O)Nc1ccc(S(=O)(=O)Nc2cccc(-c3nc4cc(C)ccc4o3)c2)cc1 | inactive |  |
| CC(NC(=O)c1ccc(NS(C)(=O)=O)cc1)c1ccccc1 (stereo not given) | inactive |  |
| COC(=O)c1ccccc1NC(=O)N1CSC[C@H]1C(=O)OC | inconclusive: 6.26% |  |
| CC(=O)NC(CCS(C)(=O)=O)C(=O)Nc1cccc(C)c1 (stereo not given) | inactive |  |
| CCOc1ccc(OCC)c(NC(=O)CN(c2ccc(C)cc2)S(=O)(=O)c2c(C)noc2C)c1 |  | inconclusive: 2.51 µM [rising, full curve, poor fit] |
| C=CCN1C(=O)C2(c3ccccc31)C1CCCC=C1C(C#N)=C(N)C2(C#N)C#N (stereo not given) | inactive |  |
| Cc1ccc2nc3c(cc(C(=O)NCCCn4ccnc4)n3C)c(=O)n2c1 | inconclusive: -5.02% |  |
| Cn1ccc(O)c(C#N)c1=O | inconclusive: 4.89% |  |
| Cn1c(=O)c(CCc2ccccc2)nc2cncnc21 | inactive |  |
| Cc1cc(C)n(-c2nnc3n2N=C(c2c[nH]c4ccccc24)CS3)n1 |  | inconclusive: 0.631 µM [rising, full curve] |
